B1: LINE1-mini (parent)
chain: GGCAGAGCUCAACACAGCGUGGCAAAGUGGCUGUGGCUAGACUGCC

Read counts are not given, so values of variants with three or more changes are uncertain.

The variants in this data set derive from B1. Put plainly: self-cleavage, relative activity (ratio to wild type); higher = more cleavage; in vitro, sequencing; the parent is a self-cleaving ribozyme.
As to G1C C15A G19U C37U, the self-cleavage was found to be 0. As for G1A G5U C10A C13A U20C A25G, the figure is 0.04; as for G1C C15A C31U C46U, 0.01. As to G1C C18U G22A C23G G27U, the self-cleavage worked out at 0.11.

Consider G1A C15A C46U, for which the self-cleavage was found to be 0.15. With G1A C18G U38G, the self-cleavage was 0. As for G1C C13A A25U C42G, the figure is 0.01; as for G1A G7U G36U, 0.15; as for G1A G27C A39C, 0.12. As for G1C A6G A11U A12G A14G, the figure is 0; as for G1C C10A C13A G33A, 0.02; as for G1A G7A A16U G27U G44U, 0.14. As for G1A G2A A14C C23U C31U U43G C46G, the figure is 0.02; as for G1A G7U C8A A39G, 0.16; as for G1A G2C A25C G27U A39G, 0.15. As to G1C A4U A24G, the self-cleavage came to 0.05. As for G1C A6C U20A, the figure is 0.03; as for G1A U9A C23G, 0.19; as for G1A G2A C18U G40A C46G, 0.46. As for G1C C15U C31U, the figure is 0.01. For the variant G1C C13A U20G U32A A39U, the self-cleavage was 0.02. As for G1C C3G C18A G36U, the figure is 0.08; as for G1C C3A C15U G17C, 0.05; as for G1A C13G A14U A26U, 0.06. As for G1C A6G U43G, the figure is 0. As for G1C A26G G29A A41C, the figure is 0. With G1C A6C G22C C46G, the self-cleavage is 0.12. As for G1C C18A C46G, the figure is 0.05; as for G1C C3U G29U C46A, 0.08.

Turning to G1A U28C G30C, the self-cleavage came to 0.61. As for G1C G5U C13U A26U, the figure is 0.03; as for G1C C37U U43A, 0.01; as for G1C C3G A6C C31G C37G U38C, 0.01. As for G1A C18A G29U G35A, the figure is 0.09; as for G1C C8A C13U C18U G40U, 0.02. As for G1A C18U A25U A39G, the figure is 0.07; as for G1C A6C A11C A24G G44U, 0.01. For the variant G1C C3G C10U, the self-cleavage came out at 0.06.

Regarding G1A U28A U32G, the self-cleavage was 0.01.

On to G1C A16U U32A, for which the self-cleavage is 0.01. As for G1C C10A A25U G36C U43A, the figure is 0; as for G1C C8U A12G A14G, 0; as for G1A C13A C23A G33A G35A, 0.06. As for G1A C23U C37G, the figure is 0.01; as for G1C A4U G5C G7C U38G A41C, 0. As for G1C G2U G5A A16C A24U, the figure is 0.03; as for G1C C3A G27C G29C U43A, 0.02; as for G1C C8G C45G, 0.01. Take G1A G2A G5U A12G U20G: the self-cleavage stood at 0.03.

For G1A G19U G29U, the self-cleavage amounted to 1.79. As for G1C A4G A24G, the figure is 0.12. As for G1C A4G A24U, the figure is 0.07. Regarding G1A G2C A6C G19A G33U, the self-cleavage was 0.04. As for G1A C13G G33C, the figure is 0.06; as for G1C C15G A26C, 0.01; as for G1C G2U G22C G30U G40C, 0.01. As for G1C C3U C15G A41G U43C, the figure is 0.02; as for G1A U34A U43A, 0.05. As for G1A G5C C15A A16C C18A G29A C46U, the figure is 0.02. As to G1A C15U A16U C18G G29A G30A C31A, the self-cleavage turned out to be 0.01. As for G1C A11U A24U, the figure is 0.02; as for G1C A12U A25C U43C, 0.03; as for G1C C3G G27A, 0.11.

On to G1A G17C U28A, for which the self-cleavage amounted to 0.62.

G1C G2C A14U G33C G35A: the self-cleavage came to 0.01. Consider G1C C3G C37G G40C, for which the self-cleavage is 0.05. Turning to G1A U9C U38A, the self-cleavage is 0.05. As for G1C G2U C10G G40A C45G, the figure is 0. For G1A G7C A12U G21A G22C U43C, the self-cleavage amounted to 0.07. As for G1C C8A C15U A39U, the figure is 0.02; as for G1C G5C G17U, 0.01; as for G1A G2U C37A G40U, 0.05. As for G1C A26G G30C U34G A39C G40A, the figure is 0; as for G1A G7A A24U U28A G40C U43G, 0.06.

Turning to G1C A4C C8A C10A A25C G44A, the self-cleavage came out at 0.18. On to G1A G7C C13U, for which the self-cleavage was 0.65. Consider G1C C13U A25G U34A, for which the self-cleavage was determined as 0.01. As to G1A C31G G33A G44A, the self-cleavage came out at 0.04. As for G1A G5A A6U C15G G19U, the figure is 0.16; as for G1A G5C G7U U38G G44U, 0.03; as for G1A G2U G21A, 0.62.

With G1A C13G G35U A39C, the self-cleavage was 0.18. As for G1A U9G G44U C46U, the figure is 0.16; as for G1C C15U A26C G29U A39C, 0.01. As for G1A C15A A41C C46A, the figure is 0.03.

On to G1A G7U A14U G35C G40C, for which the self-cleavage came out at 0.52. As for G1A U28A G30U, the figure is 0.25; as for G1C A25C G36C, 0. Turning to G1A G2A C31A, the self-cleavage came to 0.16.

On to G1A C10U A12C C46A, for which the self-cleavage is 0.

Regarding G1C C10U A16C G21A U32C, the self-cleavage was 0.04.

As to G1C C13G G19A U34A G36U U38A A41U, the self-cleavage was 0. As for G1C C8A G29U C31A C46A, the figure is 0.01. As for G1C C3G G17A A25U U28A U43C, the figure is 0.05. As for G1A C10G U28C, the figure is 0.07; as for G1A C15U A25U U28C, 0.59; as for G1C G5A A6C, 0.1. For the variant G1C C31U G35A, the self-cleavage came to 0.01. As for G1A G2U G33U G35A G36U C45A, the figure is 0.01; as for G1C A16C C18G, 0.01. As for G1A G7A A14C G19C U28A, the figure is 0.03. As for G1C A24U A26C, the figure is 0.42; as for G1C G2A G5U C10A G36A, 0.02.

As to G1C G5U G7C C13A, the self-cleavage was 0.05. Consider G1A C23A G33U, for which the self-cleavage came to 0.03. Turning to G1C G2A A4U C18G G21A U32A, the self-cleavage was 0.09. As for G1C G5A U20G G40C, the figure is 0.02; as for G1C A14U G35U C46A, 0.02; as for G1C G2A C18G G21C U38C A41U, 0.04. As for G1C A6U C42G, the figure is 0.03. Take G1A U9A G17C C18A A41G: the self-cleavage stood at 0.05.

In the case of G1A C10U U20G A26G, the self-cleavage was 0.68.

Turning to G1C A4C A11C A12U U32G U34A, the self-cleavage was found to be 0.01. As for G1A G5U U20A A24G, the figure is 0.11. As for G1C G2A G19A G35U, the figure is 0.02; as for G1C A16U A24U G36C C37U G44U, 0.02. As for G1C A16G G21A G29A U34A, the figure is 0.01; as for G1C A14C A41C, 0.03. Turning to G1C C15A C23A, the self-cleavage was determined as 0.01. As for G1C A4U G21C A24U, the figure is 0.02. As to G1C A6U C8A G44A, the self-cleavage stood at 0.02.

Regarding G1A G7A C8G C18A G36C, the self-cleavage was determined as 0.02. As for G1C A16G G40U, the figure is 0; as for G1C C10G C15A, 0.01; as for G1C C37U C46G, 0.01. As for G1A G7U G19U G22U C37U C46A, the figure is 0.02. As for G1A G30A C31G C45A, the figure is 0.05; as for G1A G17A U38G G40A, 0.01. Take G1C C3U C15G: the self-cleavage is 0.05. Take G1A C18A U20A A26G G27U: the self-cleavage was found to be 0.19. As for G1C C13U G17U, the figure is 0.02; as for G1A G19A G22U C23A U28A A41C, 0.06; as for G1C G5U A12U C18U G19C U32G U43C, 0.02. As for G1A C13A G17C C23A G40A, the figure is 0.04.

On to G1C A24G G33A, for which the self-cleavage is 0.01.

In the case of G1A U20G G22C A24U G29C C37A, the self-cleavage stood at 0.02.

G1A C18A G22A C23A A26C: the self-cleavage turned out to be 0.28. Take G1C C10G C13U A26U G44U: the self-cleavage is 0.02. As for G1C C3U G30U A39C, the figure is 0.01; as for G1A G2A A41U, 1.87; as for G1A G7C C10A U28C G33U, 0.11. As for G1A G7A C23A A24U, the figure is 0.27; as for G1C A4G U9A C13G G29A, 0.09. As for G1C C42U G44U, the figure is 0.01; as for G1A C18U C23G G27U G33A C45U, 0.01. As for G1A G2A G7U G17U U34A, the self-cleavage was found to be 0.61. G1A U9G C18U A24C U28A G36U C45G: the self-cleavage was 0.04. As for G1A C15U G27C U38A, the figure is 0.57; as for G1C C8A C31A G44U, 0.01.

Turning to G1C C3A A14G C23G C31U, the self-cleavage was 0.07.

For G1A G30U G35U, the self-cleavage was 0.24. As for G1C A4C A25G C31U, the figure is 0.01; as for G1A U20A C37A, 0.05; as for G1C C3G G19C A39G, 0.02. Turning to G1C C3A C10A A25U G29C G30U G33U A41C, the self-cleavage was determined as 0.02. On to G1C A11G A12G C37G, for which the self-cleavage stood at 0.01.

As for G1A C23A A26C, the self-cleavage came to 0.35.

Regarding G1C A6U C37A C46A, the self-cleavage worked out at 0.02.

On to G1C C3A C8A, for which the self-cleavage came to 0.39. As for G1A G2A A39U, the figure is 1.84. With G1C A6C U9G G30C G35A, the self-cleavage worked out at 0. As for G1C A14U C42A, the figure is 0.01; as for G1A C15A A25U U28A A41U, 0.06.

As for G1C A11U C23A G30A, the self-cleavage was determined as 0.02.

As for G1C A14G G21A U34G U38G A41C, the self-cleavage was 0. As for G1C G5C G7U, the figure is 0.08; as for G1C C8U C10U G17C A26G U43G, 0.01.

Source of the values: the RNAGym collection of RNA variant scans (doi:10.7554/elife.90254).
